Hit rate of the full screen: of about 94,000 compounds, about 6,200 (6.6%) were called active. Inconclusive means that the source gave no clear call. Such entries were picked first, then a sample of the others. Calls come from the whole dose curve; as a rule, active = well fitted inhibition curve with a large enough effect; inconclusive = small, poorly fitted or top-dose-only effect; inactive = flat fitted curve, though single readings scatter. A potency beside an inconclusive call is a rough fit, not a confirmed value.
Experiment: Cytotoxic Profiling in HEK 293 Cell Line of Diverse Libraries Using Quantitative High-Throughput Screening; note: nearly all actives have a fitted effect of over 60% in size
Conditions: HEK 293 viability, ATP luminescence (CellTiter-Glo), 48-72 h; activity change, negative = cytotoxicity: at 115 µM (top of the series) unless noted; series mostly up to 115 µM
Method in brief: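 Cells seeded first (HEK 293, 250 cells/well), then compound added by pintool. Incubation ran 48 or 72 hr at 37 degree Celsius. CellTiter-Glo was added and luminescence imaged after 10 min at room temperature.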
With `CC1(C(=O)NC2CCOCC2)COCc2cnc(Nc3ccccc3)nc21` (stereo not drawn) the “activity change, negative = cytotoxicity” value was inactive: -21.8% [at 172 µM].
With `C=C(CC)CN1CCCC12Cc1ccccc1CNC2=O` (stereo not drawn) the Potency was inconclusive: 89.1 µM [inhibitor, partial curve].
With `CC(=O)N1Cc2ccccc2CC2(CCCN(C)C2)C1` (stereo not drawn) the “activity change, negative = cytotoxicity” value was inactive: -6.42% [at 172 µM].
In the case of `CCOc1ccccc1C(=O)NC1CCCN(c2cc(-c3ccc(OC)cc3)[nH]n2)C1` (stereo not drawn), the Potency is reported as inconclusive: 50.1 µM [inhibitor, partial curve, poor fit].
For `Cc1ccc(C)n1-c1ccc(C(=O)N2CCC3(CCC(=O)N(CC4CC4)CC3)CC2)cc1`, the Potency was inconclusive: 56.2 µM [inhibitor, partial curve, poor fit].
In the case of `Cc1nnc2ccc(N3CCC(NC(=O)C(C)(C)C)C3)nn12` (stereo not drawn), the “activity change, negative = cytotoxicity” value is reported as inactive: -7.35% [at 172 µM].
With `CC(C)CNC(=O)c1cn2cc(-c3ccccc3)sc2n1` the Potency was active: 70.8 µM.
For `CCc1noc(-c2cn(C3CCN(C(=O)c4cccc(Cl)c4)C3)nn2)n1` (stereo not drawn), the Potency was inconclusive: 35.5 µM [inhibitor, partial curve, poor fit].
For `Cc1cc(=O)n(CC(=O)Nc2cc(F)ccc2F)c(N2CCc3ccccc3C2)n1`, the Potency was inconclusive: 50.1 µM [inhibitor, partial curve, poor fit].
For `COc1ccc(C(=O)Nc2cc(-c3ccncc3)nn2-c2ccccc2)cc1`, the Potency was inconclusive: 89.1 µM [inhibitor, single point].
For `CCCn1ccc2sc(C)c(C(=O)NCc3cc(F)ccc3F)c2c1=O`, the Potency was inconclusive: 39.8 µM [inhibitor, partial curve, poor fit].
With `COc1cc2c(cc1OC)C(CNC(=O)CC(C)C)N(C(=O)Nc1ccccc1)CC2` (stereo not drawn) the “activity change, negative = cytotoxicity” value was inactive: -0.843%.
In the case of `CC(=O)c1ccc(C(=O)N2CCCC(C(=O)c3cccc(C(F)(F)F)c3)C2)s1` (stereo not drawn), the Potency is reported as inconclusive: 56.2 µM [inhibitor, partial curve, poor fit].
With `O=C1Nc2ccccc2CC12CCN(Cc1cccs1)C2` (stereo not drawn) the Potency was inconclusive: 79.4 µM [inhibitor, partial curve, poor fit].
For `Cc1ccc(C(=O)NC2CCN(c3cc(-c4ccc(F)cc4)[nH]n3)C2)cc1C` (stereo not drawn), the Potency was inconclusive: 50.1 µM [inhibitor, partial curve, poor fit].
In the case of `Cc1ccc(C(=O)N2CCOc3ccc(NC(=O)C4CC4)cc3C2)cn1`, the “activity change, negative = cytotoxicity” value is reported as inactive: -16.1%.
For `O=C(NCc1ccc2c(c1)OCO2)c1csc(N2CCN(c3ccc(F)cc3)CC2)n1`, the Potency was active: 28.2 µM.
In the case of `CC(C)CCN1CC2(Cc3ccccc3C(=O)N2)C1`, the “activity change, negative = cytotoxicity” value is reported as inactive: -8.38% [at 172 µM].
With `COCCNC(=O)C[C@@H]1C[C@H]2O[C@H](CNC3Cc4ccccc4C3)[C@@H](O)[C@H]2O1` the “activity change, negative = cytotoxicity” value was inactive: -1.67% [at 172 µM].
In the case of `COc1ccc(C(=O)N2CCOC3(CCN(C(=O)C(N)Cc4ccccc4)CC3)C2)cc1` (stereo not drawn), the “activity change, negative = cytotoxicity” value is reported as inactive: 2.19%.
With `COc1ccc(C(=O)Nc2ccc(-c3nnc4n3CCCC4)cc2)cc1F` the “activity change, negative = cytotoxicity” value was inactive: 12.9%.
For `CCOC(=O)[C@H]1C[C@]2(CCCCN(CCO)C2=O)N(C(=O)OCC(C)C)[C@H]1c1ccco1`, the Potency was inconclusive: 89.1 µM [inhibitor, partial curve, poor fit].
For `Cc1cc(C)c(CNC(=O)C2CCCN(c3cnn(Cc4ccccc4)c(=O)c3)C2)c(C)c1` (stereo not drawn), the Potency was inconclusive: 12.6 µM [inhibitor, full curve].
For `N#Cc1ccc(N2CCCC3(CCC(=O)N(Cc4ccccc4)C3)C2)nc1` (stereo not drawn), the Potency was inconclusive: 25.1 µM [inhibitor, full curve, poor fit].
With `O=C(NCCCc1ccccc1)c1ccc2nc(-c3cccnc3)oc2c1` the “activity change, negative = cytotoxicity” value was inactive: 4.61%.
With `COc1ccccc1Nc1ccnc(N2CCC(C(=O)NCC(F)(F)F)CC2)n1` the Potency was inconclusive: 39.8 µM [inhibitor, partial curve].
With `O=C(NCc1ccccc1F)c1ccc(-c2ccc(N3CCSCC3)nc2)cc1` the Potency was inconclusive: 44.7 µM [inhibitor, partial curve].
For `O=C1COc2ccc(Nc3ccccc3F)nc2CN1Cc1ccc(F)cc1`, the Potency was active: 79.4 µM.
With `O=C(CC1CCCN(c2cnn(CC3CC3)c(=O)c2)C1)NCCc1c[nH]c2ccccc12` (stereo not drawn) the Potency was active: 79.4 µM.
In the case of `O=C(c1cc2n(n1)CC(c1ccc(Cl)cc1)OC2)N1CCN(c2ccccn2)CC1` (stereo not drawn), the Potency is reported as inconclusive: 56.2 µM [inhibitor, partial curve, poor fit].
For `O=C(NCc1ccccn1)c1ccc2nccn2c1`, the “activity change, negative = cytotoxicity” value was inactive: -8.78% [at 172 µM].
For `COc1ccc(C(=O)N2CCC(n3cc(-c4nc(C(C)C)no4)nn3)C2)cc1` (stereo not drawn), the Potency was inconclusive: 44.7 µM [inhibitor, partial curve, poor fit].
In the case of `Cc1noc2c(-c3cccnc3NCC3CCOCC3)cc(-c3ccccc3)nc12`, the Potency is reported as inconclusive: 100 µM [inhibitor, partial curve, poor fit].
For `O=C(NCCc1c[nH]c2ccccc12)c1coc(COc2ccc3c(c2)OCO3)n1`, the Potency was inconclusive: 22.4 µM [inhibitor, full curve, poor fit].
In the case of `Fc1ccc2c(c1)nc1n2[C@@H](CNCc2ccccc2)COC1`, the Potency is reported as inconclusive: 63.1 µM [inhibitor, partial curve, poor fit].
With `Cc1c(-c2ccccc2F)[nH]c2ccc(CNC(=O)CCc3cc(=O)[nH]o3)cc12` the “activity change, negative = cytotoxicity” value was inactive: -4.24%.
In the case of `O=C1NCCCCCN(C(=O)CC2CCCC2)[C@@H]2C[C@@H](C(=O)N3CCc4ccccc4C3)C[C@H]12`, the Potency is reported as active: 31.6 µM.
In the case of `CCNC(=O)c1cccnc1OC1CCN(C(=O)c2cc(C)cc(C)c2)C1` (stereo not drawn), the Potency is reported as inconclusive: 89.1 µM [inhibitor, single point].
With `O=C(CC[C@@H]1CNC(=O)[C@@H]2C[C@H](NC(=O)c3cccc(F)c3)CN12)NCc1ccc(F)cc1` the “outcome” value was “inactive”.
With `O=C(NC1CCCCC1)N1CCC(Cc2nc(-c3ccccc3)n[nH]2)C1` (stereo not drawn) the “activity change, negative = cytotoxicity” value was inactive: -27.9%.
With `COc1cccc(C(O)c2nc(C(=O)Nc3ccc4c(c3)CC(=O)N4)c(C)o2)c1` (stereo not drawn) the Potency was active: 100 µM.
With `O=C(c1cc(-c2cnccc2Cl)c2cccn2n1)N1CCCC1` the Potency was inconclusive: 100 µM [inhibitor, partial curve, poor fit].
With `O=C(CC1CCCCC1)N1CCC2(CC1)NC(=O)N(c1cccc(F)c1)N2` the Potency was inconclusive: 44.7 µM [inhibitor, partial curve, poor fit].
% is set by controls: 0 for no effect and ±100 for the full control effect; potency is the fitted concentration of half-maximal effect; tags give direction and shape of the fitted curve.
